Measured values taken from article PMC8899767, “Compound heterozygous variants in OTULIN are associated with fulminant atypical late‐onset ORAS” (EMBO Molecular Medicine, 2022).

Biological target: T1, linear di-ubiquitin chains (UniProt P0CG47 partial chain; P0CG47 partial chain)
T1 construct: ubiquitin, distal unit of the M1-linked (head-to-tail) di-ubiquitin; its C-terminus is joined to M1 of the next unit; ubiquitin, proximal unit of the M1-linked (head-to-tail) di-ubiquitin; The methods say only 'di-ubiquitin chains (UbiQ)'; the results call them linear di-ubiquitin chains; also called M1-diubiquitin; source: bought: UbiQ
Experiment: SPR; Biacore S200; di-ubiquitin chains amine-coupled to a CM5 chip; OTULIN injected at 0.065-8 µM, multi-cycle, 30 µl/min; 150 mM NaCl, 20 mM HEPES/NaOH pH 7.5, 2 mM DTT, 0.005% Tween 20; 20°C; Kd from steady state
Conditions: both partners purified

| Kd [µM] | Binder |
| --- | --- |
| 3.3 | OTULIN^C129A (catalytically inactive OTULIN) (enzyme, OTULIN (FAM105B, Gumby), human; also called OTU-deubiquitinase with linear linkage specificity; FAM105B; source: E. coli BL21 (DE3), purified (GSH-Sepharose, on-column HRV3C cleavage, gel filtration)) not shown |
| 5.1 | OTULIN^C129A/W167S (enzyme, OTULIN (FAM105B, Gumby), human; also called OTULIN^W167S/C129A; source: E. coli BL21 (DE3), purified (GSH-Sepharose, on-column HRV3C cleavage, gel filtration)) not shown |
| 4.9 | OTULIN^C129A/M86I (enzyme, OTULIN (FAM105B, Gumby), human; also called OTULIN^M86I/C129A; source: E. coli BL21 (DE3), purified (GSH-Sepharose, on-column HRV3C cleavage, gel filtration)) not shown |
